Data from the supplement of paper PMC11417369.
The other results are listed elsewhere or left out.

The sequences below were run on PfHDP1 homeodomain (GST-tagged) (assay: gcPBM binding intensity (ln(normalized median fluorescence intensity)); higher = stronger DNA binding).
In short: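 Using an Agilent 4 × 180k array, primer-extended double-stranded 36-bp intergenic genomic probes and negative controls were exposed for 1 h to GST-fused P. falciparum DNA-binding domains expressed in E. coli. Binding was carried out in 1× PBS with 1% milk, 0.2 mg/ml BSA, 0.5% salmon testes DNA and 0.03% Triton X-100, and protein was detected with Alexa488 anti-GST antibody and a 488 nm scan. Binding intensity is the highest Masliner-normalised natural-log median intensity across replicate spots of either probe orientation.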

Row | Sequence | gcPBM binding intensity (ln)
1 | TATAGTCAACTAGTCACACATATAATTATATATATA [CACACA_site5872] | 7.45
2 | ATATATATACATATAACACACACATATATATATATA [CACACA_site8827] | 9.18
3 | TAATTCACATTTTATACACACATTCGAACCTTTTTT [CACACA_site3341] | 6.88
4 | TTGTATTTATTTATGGGAGGATTATAATCATTGTAG [GTGCAC_negctrl_site268] | 6.76
5 | TGAAATAAAATTTGTACACACATATTTATTTATATA [CACACA_site6421] | 6.27
6 | TGCATTATATTAAATTTTTTATTTGTTGATGTTATA [GTGCAC_negctrl_site371] | 6.23
7 | AAATAAAAGATATTTTTACACACTTTTGATGAGATC [CACACA_site9000] | 6.24
8 | TATTTTTTTTGTCATATATAAGAAACGCTCTTCTTT [TGCATGCA_negctrl_site127] | 6.5
9 | ATATTTATATTTTCATGTACGTATTTTTATATATAT [XGTACX_site8478] | 6.73
10 | AATTATATATTATAATGTACATATATATAACTATAC [XGTACX_site1865] | 6.23
11 | ATAAAGGAAATTACAAGTACAAATAAGATAAAATAA [XGTACX_site4514] | 6.61
12 | AAAGAAATGAAATATACACACATACATAAATACATA [CACACA_site6081] | 6.68
13 | TATAAAAAAAGAGGAGGGATGGTATACTTGTGGTTT [TGCATGCA_negctrl_site49] | 6.32
14 | ATATATTTAAACTACACACGCATATCTTAGAAATAA [CACACA_site1272] | 6.44
15 | ATAGACAGCGCACAAACACACAAACACAGACCCCCA [CACACA_site4409] | 7.41
16 | TTTTTTTTATGGTACACACACGCGTATGGTTGCACG [CACACA_site1877] | 7.45
17 | TTATTTTTGTTCATAGTGCATAGAATTTATACATAT | 7.93
18 | TTGTAAATTTCTGGTTATATATTTTATGTATATGTT [CACACA_negctrl_site1443] | 6.6
19 | TTTTTTTCTTTTCAAACACACAATTGGTATATATCA [CACACA_site7542] | 6.48

Row | Sequence | gcPBM binding intensity (ln)
20 | ATTTATTTATTGGCACGTACAAATTTGTGTTTTCCA [XGTACX_site6978] | 7.02
21 | AATAAAAAGGAACACACACACACACGGATATAAATA [CACACA_site7658] | 7.15
22 | TATTTTACATCTTCTCACATTTTATCACTTTTTAAA [CACACA_negctrl_site330] | 6.69
23 | TCATAGTATAGACACACACACACACGCATATAAATA [CACACA_site6915] | 6.91
24 | TCTTTGTAAATTTCTTGTACGTAAATTTTTTTTAGG [XGTACX_site7062] | 6.68
25 | TGTATATATAAACATGCACACGTGGTTGTATATATA [CACACA_site9078] | 8.31
26 | AATATTTTAAAAAAAAGTACATTATATATATATGTT [XGTACX_site8073] | 6.19
27 | TGTAGTCTGGAGAAGAGTACACAGTATCTGGTAACA [XGTACX_site2038] | 5.83
28 | TAGTATTAAAATATTTGTACTTATATGTATTATATA [XGTACX_site538] | 6.1
29 | AGAATTCGTTTAAAAAGTACATTCAATTTAATAATG [XGTACX_site6603] | 5.9
30 | AGAATATGTTAAAAAAGTACATACTCTTTATATACG [XGTACX_site79] | 6.18
31 | TAAAAAAAAACATATACACACAAAAACGTACACATA [CACACA_site1354] | 6.84
32 | TTTTTTTCTCACAATCGTACATAAATACATATATAT [XGTACX_site3150] | 6.71
33 | TATATTTTTTAAACCACACACAATATAGAGTAGAAT [CACACA_site613] | 6.91
34 | TAATGTACATAAACCGCACACATATAAAAAAATAAA [CACACA_site2851] | 6.79
35 | AGGGGAAATAAAATATAAATTATCATATATATATAT [XGTACX_negctrl_site366] | 9.07
36 | AAAAAAAATGATAATATACACACTTATGGGAGAGCG [CACACA_site2516] | 6.28
37 | AGAAATAAGAAATATACACACATATAAATATAAATA [CACACA_site7342] | 6.5
38 | ATATATATATATATATGTACTGAATAAAGAACAAAA [XGTACX_site5400] | 9.28

Row | Sequence | gcPBM binding intensity (ln)
39 | CGTATATGACAAAAGCGTACGCATCAGCAGAAAAAT [XGTACX_site6248] | 7.13
40 | TATTTGTAAATCGATACACACATATAGATTAATATA [CACACA_site6237] | 6.42
41 | ATAAGGAAGGGATGCACACAAAAGGGTACATAAGAA [CACACA_site4006] | 7.89
42 | TTTGAATCCTTATATACACACATTATAAAATATTAT [CACACA_site6406] | 6.76
43 | TATTGTATATACTATACACACACATACATACATACA [CACACA_site8172] | 7.44
44 | AGAATATTTAATTCAACACACATACATATTTATTAA [CACACA_site5318] | 6.21
45 | GGATAATATATTAGAACACACATATAGATGTAAAAA [CACACA_site6229] | 6.73
46 | TACTTTATATAAAGATCAAAAAATAAATAATTATAA [TGCATGCA_negctrl_site446] | 6.36
47 | GAAGCCCTATGAAAAGTGCGGTTCATGAACAAAGAA [GTGCAC_site9828] | 6.94
48 | ATATATTTATATAAATGTACATACAGCACATTTATA [XGTACX_site4725] | 6.42
49 | CAAATATACATATGTAGTACATGTTGTAGATAATTT [XGTACX_site2790] | 6.55
50 | TTATATTATACATACACACCCATATAATATGTTTTT [CACACA_site4636] | 7.06
51 | AGCTACACACCACAATGTACATAAATATATATGTGA [XGTACX_site1483] | 6.82
52 | TCTTATGAATATCCCCGTACACATATATTTCTTATA [XGTACX_site6877] | 7
53 | TTGTTTTTGTTCTTGGGTACTTAAATTATAAATGAT [XGTACX_site113] | 6.93
54 | ATTTTATATCTGGATAGTACTTTAATATTTCAAATG [XGTACX_site7304] | 6.3
55 | GTATTTATAAATTATAGTACTTTGCGTATCATATAT [XGTACX_site7358] | 6.75
56 | GGATATTCATTAACCACACACACAAAAAAAATAAAA [CACACA_site3800] | 6.85
